The record followed here is US12129305B2, “Targeting CLPTM1L for treatment and prevention of cancer” (The Medical College of Wisconsin, Inc., priority 2018, dated 2024).

Experiment [1] relates to ID8-luc ovarian tumor cells. Description: ID8-luc orthotopic syngeneic ovarian isograft model. The class given is in vivo, C57bl/6 mice. As to the method:
ID8-luc model: Five-week-old C57bl/6 mice (Jackson labs strain 664) were acclimated for one week and injected intraperitoneally with […] luciferase expressing ID8 syngeneic ovarian tumor cells suspended in 200 μL of PBS under Medical College of Wisconsin animal protocol AUA6339. One week after injection, antibodies and/or chemotherapeutic agents were administered intraperitoneally at the indicated doses. Chemotherapeutic doses or vehicle were administered one day before control or therapeutic antibody doses. Imaging and analysis of luciferin radiance was done up to twice weekly on an IVIS Spectrum-CT Imaging System equipped with thermoelectrically-cooled CCD camera. Mice were monitored twice weekly for weight and signs of morbidity. Mice were euthanized after 45 days or upon signs of morbidity. Animal studies were conducted using the standards for humane treatment of animals as described in the U.S. Public Health Service Policy on Humane Care and Use of Laboratory Animals.
With disseminated peritoneal disease being the most common presentation upon recurrence of ovarian carcinoma, we utilized an orthotopic isograft model of disseminated peritoneal ovarian cancer. Human anti-CLPTM1L binding to luciferase-expressing ID8 ovarian tumor cells (ID8-luc) was detected by flow cytometry (FIG. 31A). […] Tumor load was monitored by luciferin luminescence using whole body imaging. […]

A further experiment has as its system Panc1 cells. The experiment can be described thus: gemcitabine killing with culture supernatants (live imaging cytotoxicity). The class given is cell-based, human. As to the method: (§1) (A) Western blotting of whole-cell, apoptotic bodies, extracellular vesicles, and microvesicles isolated from Panc1 cells treated with vehicle control or 200 nM gemcitabine. (B) Relative killing (live imaging cytotoxicity) of Panc1 cells treated for 48 hours with −40 nM gemcitabine and culture supernatants from donor cells with vector control or overexpressing CLPTM1L. (C) Relative killing (live imaging cytotoxicity) of Panc1 cells treated with 0-40 nM gemcitabine and culture supernatants (1:1 mix with fresh media) (top panel) or 25 μL extracellular vesicles (EVs) (ExoQuick exosomal fraction) per mL of media (bottom) from Panc1 donor cells with vector control, CLPTM1L overexpression, or CLPTM1L ectodomain deletion mutant (CLPTM1L ALoop) overexpression. (D) Western blotting of Panc1 lysates treated as above with the indicated supernatants and/or 102-5 anti-CLPTM1L for phospho-Akt (T308) and total Akt. (E) Characterization of extracellular vesicles isolated from human serum by ultra-centrifugation by western blotting for exosomal markers CD9 and CD63, and for CLPTM1L using 102-5 antibody (left); and by transmission electron microscopy (right). Scale bar=500 nM. […]
Cells were plate at equal density on 24 well tissue culture plates and treated as indicated. […] A killing index was calculated for each well by dividing the number of dead cells by the number of total cells. […]

The test system of experiment [2] is A2780 ovarian tumor cells. Description: carboplatin killing after human serum extracellular vesicles. As to conditions: vesicles pretreated 24 hours with 200 nM 102-5; 40 μM carboplatin 4 days. The class given is cell-based. On the procedure: as §1, with “Akt.” for “Akt. (E) Characterization of extracellular vesicles isolated from human serum by ultra-centrifugation by western blotting for exosomal markers CD9 and CD63, and for CLPTM1L using 102-5 antibody (left); and by transmission electron microscopy (right). Scale bar=500 nM.”
Ultracentrifugation Protocol: One milliliter of serum was centrifuged at 2000×g, 4° C., 15 minutes on a table top centrifuge to remove debris. […] Vesicle size was measured using AMT Image Capture Engine Software Version 602.571. Protein concentration of samples was measured on a Qubit (Life Technologies). […]

Experiment [3] concerns pancreatic adenocarcinoma. The experiment can be described thus: syngeneic orthotopic mouse models of pancreatic adenocarcinoma. The note with it: in vivo.
Experiment [4] concerns normal, benign, and tumor tissues. Description: immunohistochemical staining of tumor microarray, tissue cross-reactivity. The class given is binding. An excerpt: FIG. 16 presents data characterizing tissue cross-reactivity (top) and tumor specificity (bottom) of clone 102-5.
Experiment [5] deals with lung (A549) and ovarian (A2780) tumor cells. The experiment can be described thus: indirect flow cytometry, cell surface binding. As to conditions: anti-Human IgG alexafluor 488 secondary. As to the method:
Indirect flow cytometry was performed using 102-5 as a primary and anti-Human IgG (H+L) preadsorbed, alexafluor 488 conjugated secondary antibody.
Tumor cells were harvested by trypsinization and suspended in cold PBS, 10% FBS. 05% NaN3. 100 μL of cell suspension was added to 12×75 mm polystyrene tubes. 10 μg/mL of primary antibody diluted in PBS 3% BSA was added and tubes were incubated at 4° C. in the dark for 45 minutes. After washing 3 times in cold PBS, cells were resuspended in rabbit anti-Human Fc (H&L)-Alexafluor 488 (Abcam) in PBS 3% BSA and incubated at 4C in the dark for 30 minutes. After washing 3 times in cold PBS, cells were suspended in 500 μL cold PBS, 3% BSA, 0.05% NaN3 and analyzed on an Accuri C6 flow cytometer. Cells were gated for live cells based on scatter and fluorescence was plotted on a histogram using Flowing Software 2 (Turku Bioimaging).
On the technique in general: In flow cytometry, cells or beads pass a laser one at a time.

B1: 102-5: Human anti-CRR9/CLPTM1L IgG1; heavy chain V SEQ ID NO:30, light chain V SEQ ID NO:31 (antibody, V domains shown)
VH: EVQLLESGGGLVQPGGSLRLSCAASGFSFSSYEMNWVRQAPGKGPEWISYISSGGGTIYYADSVRGRFTISRDNSNNTLYLQMNSLRPDDTAIYYCARDRGRKWLQLLFDSWGQGTLVTVSS
VL: QAVLTQPPSASGTPGQKVTISCSGSSSNIGSNTVNWYQQLPGTAPKLLIYTNNQRPSGVPDRFSGSKSGASASLAISGLQSKDEADYYCAAWDDSLNGWVFGGGTKLTVLG
modifications: Synthetic- Anti-CRR9/CLPTM1L clone 102-5 heavy chain V; Synthetic- Anti-CRR9/CLPTM1L clone 102-5 light chain V
B1: the relative tumor load in experiment [1] (10 mg/kg weekly I. P., day 42, control 2.45-fold, p<0.005) is 0.90 fold. Also, the tumor load in experiment [1] (combination: carboplatin following anti-CLPTM1L, over 35 days, p<0.05) is reported as 0.23 fold. Moreover, in the experiment on Panc1 cells, the gemcitabine killing result is recorded as “sensitization to gemcitabine killing”. Besides, the “cytoprotection conferred by supernatants” value with Panc1 cells (supernatants from CLPTM1L-overexpressing cells) was “abrogated the cytoprotection conferred by supernatants”. The “resistance to carboplatin from serum extracellular vesicles” value in experiment [2] was “abrogated resistance to carboplatin with significantly increased killing”. Further, in experiment [3], the survival result is given as “prolonged survival was observed” and the tumor size entry is “tumor shrinkage was observed”. Moreover, in experiment [4], the “tumor specificity of tissue binding” value is on record as “binding to tumor tissue with little to no binding to normal or benign tissues”. The cell surface binding result in experiment [5] was “binding of 102-5 to the surface of lung (A549) and ovarian (A2780) tumor cells”.
